Laboratory results as given in PMC4336329 (PLoS ONE, 2015).
Out of some 310,000 compounds screened, about 2,200 (0.71%) showed an effect of 50% or more. Effects have a minus sign here. The list shows a part of the results.

target: human ether-à-go-go-related gene (hERG) potassium channel (human, UniProt Q12809); assay: primary screen, population patch clamp on CHO cells stably expressing hERG
Sequence (Q12809 whole entry, looked up): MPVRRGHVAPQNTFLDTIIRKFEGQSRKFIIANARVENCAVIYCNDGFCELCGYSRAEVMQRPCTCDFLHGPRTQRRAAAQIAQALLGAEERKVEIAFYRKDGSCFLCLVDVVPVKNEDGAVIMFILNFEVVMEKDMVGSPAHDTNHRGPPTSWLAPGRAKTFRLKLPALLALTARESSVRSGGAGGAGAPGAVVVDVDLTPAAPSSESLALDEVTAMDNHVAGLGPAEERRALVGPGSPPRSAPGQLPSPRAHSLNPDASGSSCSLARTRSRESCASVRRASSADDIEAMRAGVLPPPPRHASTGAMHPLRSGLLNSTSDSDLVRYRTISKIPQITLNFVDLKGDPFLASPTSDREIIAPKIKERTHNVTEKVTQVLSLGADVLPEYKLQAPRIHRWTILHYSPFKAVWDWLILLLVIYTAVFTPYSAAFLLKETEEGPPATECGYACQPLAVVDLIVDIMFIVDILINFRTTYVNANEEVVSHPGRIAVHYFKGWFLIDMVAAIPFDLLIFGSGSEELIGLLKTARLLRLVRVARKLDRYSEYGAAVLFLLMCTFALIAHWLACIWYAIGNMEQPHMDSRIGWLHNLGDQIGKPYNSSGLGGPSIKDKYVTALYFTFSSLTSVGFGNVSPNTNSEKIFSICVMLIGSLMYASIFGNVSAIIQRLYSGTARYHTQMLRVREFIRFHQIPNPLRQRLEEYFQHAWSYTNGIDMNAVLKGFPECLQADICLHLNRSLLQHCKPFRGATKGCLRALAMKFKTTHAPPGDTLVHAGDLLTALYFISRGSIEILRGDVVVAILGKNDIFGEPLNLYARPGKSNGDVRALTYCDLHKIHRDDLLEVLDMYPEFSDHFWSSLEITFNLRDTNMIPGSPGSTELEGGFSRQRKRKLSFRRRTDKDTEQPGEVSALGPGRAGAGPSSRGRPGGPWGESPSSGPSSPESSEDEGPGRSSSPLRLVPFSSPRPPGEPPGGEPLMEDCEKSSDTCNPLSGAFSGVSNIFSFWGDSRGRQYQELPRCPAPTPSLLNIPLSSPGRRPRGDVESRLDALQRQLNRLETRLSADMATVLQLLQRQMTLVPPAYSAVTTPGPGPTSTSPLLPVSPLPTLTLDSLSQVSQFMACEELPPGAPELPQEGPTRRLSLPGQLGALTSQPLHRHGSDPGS

| SMILES | hERG current change (%, negative = inhibition) at 1uM [%] |
| --- | --- |
| Cc1cc2nnc(SC3CCOC3=O)n2c2ccccc12 (centres unmarked) | -4.23 |
| O=C(Nc1ccccc1)C(=O)c1cn(CC(=O)N2CCCCC2)c2ccccc12 | -20.6 |
| CCN(C(=O)Cc1c(C(=O)O)[nH]c2ccccc12)c1ccc(OC)cc1 | 17.9 |
| O=C(Nc1ccc(O)c(-c2nc3ccccc3s2)c1)c1cc(=O)c2ccccc2o1 | 8.27 |
| Cc1cc(C)nc(NS(=O)(=O)c2ccc(NC(=O)C(C)Oc3ccccc3F)cc2)n1 (centres unmarked) | 12.2 |
| CCCCCn1c(=O)c(C(=O)NCc2ccc(Cl)cc2)c(O)c2ccccc21 | 14.4 |
| O=C(COc1ccccc1)N=C1SC2CS(=O)(=O)CC2N1c1ccccc1F (centres unmarked) | 5.41 |
| COc1ccc(-n2c(=S)[nH]c3cc(C(=O)Nc4cc(C(N)=O)ccc4OC)ccc3c2=O)c(OC)c1 | 16.6 |
| CC(=O)Oc1ccc2ccccc2c1C(NC(=O)Cc1ccccc1)c1ccccc1 (centres unmarked) | -0.824 |
| N=c1oc2cc(O)ccc2cc1C(=O)Nc1ccccn1 | 13.1 |
| CC(=O)c1ccc(NC(=S)N2CCCC(CO)C2)cc1 (centres unmarked) | 12 |
| Cc1nc2ccc(NC(=S)NC3CCCCC3)cc2nc1C | 8.08 |
| O=C(Cn1cc(C(F)(F)F)ccc1=O)NCc1ccc(F)cc1 | 12.5 |
| O=[N+]([O-])c1ccc2oc(C3CCCCC3)nc2c1 | 14.4 |
| Cc1cc(C)cc(N(C(=O)c2csnn2)C(C(=O)NC2CCCC2)c2cccnc2)c1 (centres unmarked) | 13.7 |
| CSc1ccccc1NC(=O)CSc1nnc(Cc2ccccc2)o1 | 8.85 |
| CCC(=O)c1c[nH]c(C(=O)NCc2cccnc2)c1 | 8.2 |
| Cn1cc([N+](=O)[O-])c(C(=O)NCc2cc3ccccc3[nH]2)n1 | 12.5 |
| CC(C)NC(=O)CSc1nnc(CNC(=O)OC(C)(C)C)n1C | 14.8 |
| Cc1oc(-c2ccccc2)nc1C(=O)O | 12.9 |
| CCOc1ccc(CCNC(=O)CCS(=O)(=O)c2ccc(Br)cc2)cc1OCC | 11 |
| Cc1ccc(-c2nc(N)n(S(=O)(=O)c3ccc(C)cc3)n2)cc1 | 5.57 |
| Cc1cccc(S(=O)(=O)c2c(N)n(-c3ccccc3)c3nc4ccccc4nc23)c1 | 6.06 |

| SMILES | hERG current change (%, negative = inhibition) at 1uM [%] |
| --- | --- |
| CCCn1c(NCc2ccc(C)o2)nc2ccccc21 | -9.6 |
| C/C(=N/NC(=O)CNC(=O)c1cccnc1)c1ccco1 | 14.4 |
| COc1ccc(CCN(C(=O)C(F)(F)F)C(C(=O)NC2CCCCC2)c2cccs2)cc1 (centres unmarked) | 18.8 |
| O=C(Nc1ccsc1C(=O)O)c1ccccc1Cl | 16.1 |
| Cn1cccc1/C=N\NC(=O)Cc1ccc(Br)c2ccccc12 | -2.65 |
| CCCCN(C(=O)c1ccc(S(=O)(=O)N2CCOCC2)cc1)C1CCS(=O)(=O)C1 (centres unmarked) | 3.33 |
| CCN(CC(=O)NCc1ccc(F)cc1)C(=O)Cc1c(F)cccc1Cl | -1.62 |
| COCC(=O)n1cc(C(=O)OC)c2ccccc21 | 4.26 |
| NC(=O)c1ccc(NC(=O)CSc2nnc(-c3cccnc3)n2Cc2ccco2)cc1 | 11.3 |
| Cc1cc(-c2csc(NC(=O)c3cc4ccccc4o3)n2)c(C)n1C | 0.353 |
| COc1ccc(NC(=O)c2nc[nH]c2C(=O)N[C@@H](C)C(=O)OC(C)(C)C)cc1 | 5.23 |
| Cc1cccc(NC(=O)C2CCN(c3nc(C)cc(C)n3)CC2)c1 | -5.84 |
| C=CCn1c(NCc2ccccc2)nc2ccccc21 | -9.87 |
| Cc1c(C)n(C)c2ccc(C(=O)NCCCN3CCCCC3)cc12 | 0.736 |
| CC(NC(=O)CSc1n[nH]c(=O)[nH]c1=O)C1CC2CCC1C2 (centres unmarked) | 10.8 |
| CC(=O)Oc1ccccc1C(=O)Nc1ncc([N+](=O)[O-])s1 | 6.51 |
| CC1CN(c2c3c(nc4ncnn24)CCCC3)CC(C)O1 (centres unmarked) | 13.7 |
| COc1ccccc1N1CCN(C(=O)c2ccc(S(=O)(=O)N3CCCCC3)cc2)CC1 | 10.5 |
| Cc1ccc(-c2csc3ncnc(N4CCN(C(=O)c5ccccc5)CC4)c23)cc1 | -4.95 |
| Cc1c(F)cccc1NS(=O)(=O)c1ccc2c(c1)NC(=O)CO2 | 9.68 |
| N/C(Cc1cccc2ccccc12)=N\OC(=O)c1cccs1 | 15.6 |
| CN1CCN(NC(=O)c2cccs2)CC1.Cl | 5.44 |
| CC(C)c1cc2c(c(O)c1O)[C@@]13CCCC(C)(C)C1CC2OC3=O (some centres unmarked) | -0.654 |

| SMILES | hERG current change (%, negative = inhibition) at 1uM [%] |
| --- | --- |
| O=C(Nc1cnn(Cc2ccc(F)cc2)c1)C(c1ccccc1)c1ccccc1 | 1.78 |
| O=C1CC(c2ccccc2)CN1C(=O)c1cccnc1 (centres unmarked) | 10.8 |
| O=C(O/N=C/c1ccc(Cl)cc1)C1CCCCC1 | 11.8 |
| O=C(CSc1nnc(Cc2ccccc2)o1)NCc1ccc2c(c1)OCO2 | 10.4 |
| O=C(CCC(=O)N1CCc2ccccc2C1)NCCc1ccc(Cl)cc1 | -0.546 |
| O=C(Cn1cc(C(F)(F)F)ccc1=O)N1CCN(S(=O)(=O)c2ccccc2)CC1 | 1.04 |
| Cc1ccc(S(=O)(=O)NCC(=O)OCC(=O)NCCc2ccccc2)cc1 | 15.1 |
| COc1ccc(/C=N/NS(=O)(=O)c2ccc(NC(C)=O)cc2)cc1 | 2.08 |
| O=C(CC1S/C(=N/N=C/c2ccco2)NC1=O)Nc1cccc(Cl)c1Cl (centres unmarked) | 10.2 |
| O=C(CCc1ccccc1)Nc1ccccc1C(F)(F)F | 10.3 |
| Cc1ccc(N(Cc2ccccc2O)C(=O)c2ccccc2F)cc1 | 15.5 |
| COCCn1c(N)c(Sc2ccc(C)cc2)c(=O)[nH]c1=O | 16.2 |
| O=C(CC(c1ccccc1)c1ccco1)N1CCCCC1 (centres unmarked) | 6.99 |
| O=C(Nc1cccc([N+](=O)[O-])c1)c1ccncc1 | -7.08 |
| CCC(=O)Nc1ccc2c(c1)ncn2-c1ccc(C)cc1 | 13.6 |
| COc1ccc(N(CC(=O)N/N=C/c2cc3ccc(OC)cc3nc2Cl)S(=O)(=O)c2ccccc2)cc1 | 7.26 |
| CCC(C)NC(=O)Cc1ccc(-c2ccccc2)cc1 (centres unmarked) | 13 |
| Cc1csc(NC(=O)NCC2CCCC(CNC(=O)Nc3nc(C)cs3)C2)n1 (centres unmarked) | 17.7 |
| CN(CC(=O)Nc1cccc(F)c1)CC(=O)N1CCc2ccccc21 | -7.9 |
| CC(CCc1ccccc1)NC(=O)C(Cc1ccccc1)NS(=O)(=O)c1cccs1 (centres unmarked) | 17.3 |
| COc1ccc(N(CC(=O)NCc2ccc(F)cc2)C(=O)c2snc(C(N)=O)c2N)cc1 | 12.9 |
| CCCCN(C(=O)CC(c1ccccc1)c1ccccc1)c1c(N)n(CCC)c(=O)[nH]c1=O | 12.1 |
| CCOc1ccc(S(=O)(=O)N(CC)CC(=O)NCc2ccncc2)cc1 | 10.2 |

| SMILES | hERG current change (%, negative = inhibition) at 1uM [%] |
| --- | --- |
| COc1ccc(-n2c(=O)c(CCC(=O)NCCc3ccccc3F)nc3ccccc32)cc1 | 8.72 |
| CC(=O)Nc1cccc(-c2nc3ccccc3s2)c1 | 1.52 |
| Cc1noc(C)c1CSCC(=O)Nc1ccccc1N1CCCCC1 | 6.77 |
| O=C(c1ccccc1)N1CCN(C(=O)c2ccc3c(c2)OCO3)CC1 | 15.6 |
| COc1ccc(C2c3ccc(O)cc3Oc3ncn(Cc4ccco4)c(=N)c32)cc1 (centres unmarked) | -43.5 |
| COc1cc(/C=C2/SC(=S)N(CC(=O)NC(C)(C)C)C2=O)cc(OC)c1OC | 9.01 |
| COc1ccc(NC(=O)CN(C2CCCCC2)S(C)(=O)=O)cc1OC | 8.91 |
| O=C(COc1ccccc1N1C(=O)C2C3C=CC(C3)C2C1=O)c1ccccc1 (centres unmarked) | 14.4 |
| Clc1ncccc1-c1nnn(-c2ccccc2)n1 | 10.9 |
| O=C(Cn1ccc(NC(=O)OCc2ccccc2)nc1=O)NCCc1c[nH]c2ccccc12 | 11.3 |
| C1CCN=C(Nc2nn[nH]n2)CC1 | 16.2 |
| CCOc1cccc(CNCCCSc2ncccn2)c1.Cl | 2.55 |
| COc1ccc(NC(=S)NCc2ccc(S(N)(=O)=O)cc2)cc1OC | 19 |
| N#CCCn1cc(/C=C2\NC(=S)N(c3ccccc3)C2=O)c(-c2ccc(F)cc2)n1 | 11.2 |
| Cc1ccc(S(=O)(=O)NNC(=O)C(=O)NNS(=O)(=O)c2ccc(C)cc2)cc1 | 4.61 |
| COc1ccccc1-c1ccc2nnc(SC)n2n1 | 14.8 |
| Cc1ccc(SCCC(=O)OCC(=O)Nc2ccc(S(N)(=O)=O)cc2)cc1 | 16 |
| CC1(C)CC(=O)N(c2ccc(Cl)c(Cl)c2)C(=O)C1 | 4.25 |
| CC(=O)Nc1cccc(NC(=O)c2c(-c3ccccc3Cl)noc2C)c1 | 3.96 |
| COc1ccc(NC(=O)C(=O)NCC(c2ccco2)N2CCc3ccccc32)cc1 (centres unmarked) | 8.78 |
